Source: the supplement of paper PMC3334620
In all, about 33,000 sequences were measured (“E-score (-0.5 to 0.5)”: median about -0.017, highest 2% from about 0.3 on). The list shows a part of the results.

What follows are sequences tested against T1, Sut1 (UniProt P53032) (assay: PBM E-score (8-mer binding enrichment) (E-score (-0.5 to 0.5)); higher = stronger / more preferred TF binding; most listed sequences are background and not binding sites). Settings: protein concentration: 200 nM; construct: GST-full length.
T1 sequence: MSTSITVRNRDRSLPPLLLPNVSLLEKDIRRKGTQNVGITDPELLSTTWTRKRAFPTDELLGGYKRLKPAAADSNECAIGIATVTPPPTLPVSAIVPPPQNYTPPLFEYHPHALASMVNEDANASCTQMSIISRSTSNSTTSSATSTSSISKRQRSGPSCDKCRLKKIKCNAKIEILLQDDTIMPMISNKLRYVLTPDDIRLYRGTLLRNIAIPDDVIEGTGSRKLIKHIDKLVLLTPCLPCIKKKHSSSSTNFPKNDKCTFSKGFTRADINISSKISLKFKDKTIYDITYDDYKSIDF
Method in brief: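 Each ungapped eight-base word and its reverse complement, pooled, received an E-score from the Universal PBM Analysis Suite. Underlying scans, normalised with masliner, recorded fluorescent anti-GST bound to GST-tagged yeast transcription factors. These were applied at about 100-200 nM to universal all-10-mer Agilent arrays double-stranded by primer extension.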

Point of comparison: CTCGCTGA, “PBM E-score” value -0.0752. Against it:
- AGGCGAAG — higher, -0.04
- CAGACGCC — lower, -0.119
- GTACGTCA — lower, -0.0804
- AGCGTGAT — higher, 0.0704
- GAGTTCTA — higher, 0.135
- ATGATTCG — higher, 0.0864
- CTACCTTA — higher, 0.0292
- TACAGGAA — higher, 0.128
- CCTTTCAC — lower, -0.0877
- ATTGGCCG — lower, -0.182
- CCTTGGCC — lower, -0.293
- CAGAGGAG — lower, -0.127
- CAACGCTC — lower, -0.146
- GCGTTTCC — higher, 0.0751
- AGTCGTAG — higher, -0.00315
- GCATATTA — higher, 0.11
- AGTACTTC — higher, 0.137
- GCCCTGTA — higher, -0.0292
- GTTTTCTA — higher, 0.212
- ATAATCCG — higher, 0.19
- GCAAAAAA — higher, 0.0743
- ATTCCGGA — higher, 0.42
- GAAAAAGA — higher, 0.188
- GCGTTACA — lower, -0.113
- GCAGCAGA — lower, -0.175
- ATCTGTGG — lower, -0.162
- GCGCCACC — lower, -0.338
- GCGCGGGA — lower, -0.22
- ATTTCATC — higher, 0.138
- TATAATGA — higher, 0.197
- CAGGAATC — higher, -0.0729
- CGTATCCC — lower, -0.242
- CGCACCAG — lower, -0.205
- ATTAAGTG — higher, 0.161
- GGTTCAAA — higher, 0.124
- AGAACCAG — higher, 0.0981
- GCGACCAC — lower, -0.141
- AGAACCGA — higher, 0.15
- CACATCTA — higher, 0.128
- GTACCCAA — lower, -0.162
- CTGCCCTC — lower, -0.294
- CAGAACCC — lower, -0.152
- AGTATACC — higher, 0.118
- GACTAGTC — higher, 0.0564
- AGACCGGC — lower, -0.228
- AATGTCCC — lower, -0.149
- ATCCGTGG — higher, -0.0567
- ATACATTA — higher, 0.234
- AGGCGACA — lower, -0.182
- GATATGGA — higher, 0.0661
- AGGTTCGG — higher, 0.203
- GCATTTCA — higher, 0.169
- AATCCGAA — higher, 0.159
- CAGGGAAA — higher, -0.0645
- AAGCTGGC — lower, -0.195
- GCGTAAAC — higher, 0.0266
- GAACCGTA — lower, -0.234
- CCGCAGCG — higher, -0.0642
- ATAAAACG — higher, 0.295
- ACTTTGGC — lower, -0.104
- ACTATCGA — lower, -0.0789
- AGGGGTGA — lower, -0.258
- CAAACGGG — higher, 0.0265
- ACTACTGC — higher, -0.059
- CCTCACAC — lower, -0.112
- GCATGAGA — lower, -0.227
- ACATTGAC — higher, -0.025
- CCAACTCA — higher, -0.0222
- GTTCCTAA — higher, 0.0563
- CGAGCTCC — higher, 0.0848
- GGCACAAC — lower, -0.196
- CAAAGGTA — higher, 0.0312
- TGTTCCAA — higher, -0.0288
- GCCTAGAA — higher, 0.0225
- CAATAATG — higher, 0.0884
- GAAGACAA — higher, 0.161
- TGAAGAAA — higher, 0.185
- TCCTATAA — higher, 0.161
- CCACATCC — lower, -0.112
- CAGACTGG — lower, -0.218
- CTATCCGA — higher, 0.134
- ACATGTTG — higher, 0.167
- GCGAGGGA — lower, -0.226
- ACATTTCC — higher, -0.00897
- CCAAATCC — higher, 0.0309
- GATTCAGC — higher, -0.0174
- GCCACGCC — lower, -0.229
- ATAGCGTC — lower, -0.0799
- CTACAGGC — lower, -0.186
- CACTTCGA — higher, -0.0675
- CAAAAATA — higher, 0.281
- GGTTGTAC — higher, 0.0573
- GTCGAAAC — lower, -0.133
- ATGAACGC — higher, 0.034
- ACTGGCTC — lower, -0.158
- AATCAACG — higher, 0.123
- TATGGACA — higher, 0.0733
- CCATGAAC — higher, 0.0148
- AGAACGGC — higher, 0.0452
- ACGTTCGC — lower, -0.15
- ATGTTAGC — higher, 0.0602
- AGTTGCAC — lower, -0.117
- TAGTTAGA — higher, 0.169
- ACTCAATC — higher, 0.0145
- CAGGTGCG — lower, -0.123
- AGGTCCCC — lower, -0.0987
- AGTCGTGC — lower, -0.22
- CGTAATAG — higher, 0.125
- TAGGTCAA — higher, 0.012
- ATAGTCTA — higher, 0.0924
- TCCGTCCA — higher, 0.316
- CCCCCATC — lower, -0.261
- CCTAATTA — higher, 0.039
- AATCCGGC — lower, -0.0834
- GTCCTTAA — higher, -0.00985
- CTGCATCC — lower, -0.0902
- ACAAACAA — higher, 0.154
- ATATATTC — higher, 0.282
- CCACCTGC — lower, -0.213
- CAGTCATC — lower, -0.109
- CGTACCGA — higher, 0.0233
- CCTTTCTC — higher, -0.0288
- AGCATTAT — higher, 0.231
- GCGGGTAA — lower, -0.291
- CATAGAGG — lower, -0.22
- GGCCGTAC — higher, -0.0509
- GGGTATTA — higher, -0.0222
- ACGAGGTC — lower, -0.0839
- ACCCGAAA — higher, 0.0144
- ATATGTGC — higher, -0.0399
- AATTAGGC — higher, 0.155
- CGTGAACA — higher, -0.0744
- CTCATTTC — higher, -0.0108
- ACTGGTAC — lower, -0.0817
- ATTTGCCC — higher, 0.0253
- ATACCGAG — higher, -0.0151
- CGTCATGA — lower, -0.117
- AAATAAGT — higher, 0.109
- ATAGCAGC — higher, -0.0277
- ATACATAC — higher, 0.0668
- ACCCTAGC — lower, -0.127
- CCCTCCTC — lower, -0.301
- ACCACTCG — higher, 0.0555
- GTAGTGGA — higher, 0.0571
- AGTCTTTG — lower, -0.123
- CTTTGACC — higher, -0.0243
- TCTTTCAA — higher, 0.0726
- GGCCTTGA — higher, -0.0528
- CGGATTCA — higher, 0.0536
- GCATCGGA — higher, 0.348
- AATCTCTC — higher, 0.0289
- ACGTACCA — higher, -0.0482
- TAACAGCA — higher, 0.0633
- ACGGTTAG — lower, -0.225
- GCTGAGGA — lower, -0.218
- AACAGCAC — higher, 0.156
- AGGAATGC — lower, -0.0946
- AATCCGAG — higher, 0.0276
- CTAAGCAA — lower, -0.0825
- AAGCTCTG — lower, -0.197
- GTTTAGTA — higher, 0.208
- ACGAATTG — higher, 0.0104
- GAGCTTCA — higher, 0.0926
- AGTTTCTG — higher, 0.0794
- GTTTTGCA — higher, 0.0328
- AGCTCTCA — higher, 0.00744
- CGAACGAA — higher, 0.126
- CCCAGTGC — lower, -0.148
- GCGGTTAC — higher, 0.113
- CAAGTTTA — higher, 0.0197
- GATCGAAC — higher, -0.0314
